Measured values reported in the supplement of paper PMC3334620.
Over roughly 33,000 sequences, “E-score (-0.5 to 0.5)” has its median near -0.056; the highest 2% begin near 0.38. Some of the results follow.

Each sequence was assayed against Stb4 (UniProt P50104) (assay: PBM E-score (8-mer binding enrichment) (E-score (-0.5 to 0.5)); higher = stronger / more preferred TF binding; most listed sequences are background and not binding sites). Conditions: protein concentration: 200 nM; construct: GST-DNA-binding domain.
Procedure: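 Universal 'all 10-mer' protein binding microarrays (Agilent AMADID 015681) probed with GST-tagged S. cerevisiae TFs (full-length or DBD) made by in vitro transcription/translation (PURExpress), about 100-200 nM. Bound TF was detected with fluorescent anti-GST. Each ungapped 8-mer (which stands for itself and its reverse complement) is scored by the PBM enrichment score (E-score), a modified Wilcoxon-Mann-Whitney statistic from -0.5 to +0.5, computed with the Universal PBM Analysis Suite. Scale: above 0.35 generally sequence-specific binding.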

Going from GCCTTGCC to GACTAAGC, the “PBM E-score” value rises from -0.0425 to 0.0343.

Going from TACAAGTA to GCACCGGC, the “PBM E-score” value rises from -0.148 to 0.193.

Compared with AGGGCGTA, CGTGCCGA is higher in “PBM E-score” value: -0.24 for the first, 0.405 for the second.

First: ATCCTACG
Second: ATAATCCA
The “PBM E-score” value of the first is lower: -0.216 for the first, -0.0426 for the second.

Going from ATAGGGAG to GGGTACGA, the “PBM E-score” value rises from -0.196 to -0.0141.

First: ATCTACAT
Second: CCCACTTC
The “PBM E-score” value of the first is lower: -0.0272 for the first, 0.0624 for the second.

Compared with ATATCCAG, TAAACATA is higher in “PBM E-score” value: -0.114 for the first, -0.029 for the second.

Compared with CCGGTCGA, AAACATAA is lower in “PBM E-score” value: 0.149 for the first, -0.151 for the second.

Going from ATTTGTTG to AGGCAAAG, the “PBM E-score” value falls from 0.0322 to -0.249.

First: AATGGAGA
Second: ACTAGTCT
The “PBM E-score” value of the first is higher: -0.0369 for the first, -0.248 for the second.

Compared with CGGTAGGA, GCCGCCGA is higher in “PBM E-score” value: 0.136 for the first, 0.331 for the second.

Going from ATTCACGA to AGGGATAA, the “PBM E-score” value rises from -0.192 to -0.158.

Compared with GACCCTGC, CTGTTATA is lower in “PBM E-score” value: 0.1 for the first, -0.0375 for the second.

First: AAGCTATT
Second: ACGACGAG
The “PBM E-score” value of the first is higher: -0.0911 for the first, -0.316 for the second.

First: GATTGTAA
Second: CAACTTAG
The “PBM E-score” value of the first is higher: 0.00432 for the first, -0.00205 for the second.

Compared with AAACGGAG, GATGTTCA is lower in “PBM E-score” value: 0.0887 for the first, -0.047 for the second.

First: GACGGTCC
Second: ACAAGTTG
The “PBM E-score” value of the first is higher: 0.101 for the first, -0.115 for the second.

Going from CAACGGGC to GCCAACGA, the “PBM E-score” value falls from -0.0414 to -0.155.

Going from AAATTTAG to AACAAACA, the “PBM E-score” value falls from 0.024 to -0.0298.

Compared with CCGGAGCG, CCTGCGTC is lower in “PBM E-score” value: 0.273 for the first, -0.241 for the second.

First: TCTGTTAA
Second: AGCACGCA
The “PBM E-score” value of the first is lower: -0.202 for the first, -0.155 for the second.

Compared with AAACCCCT, ACATGAGA is higher in “PBM E-score” value: -0.202 for the first, 0.0138 for the second.

Compared with ATTAGAAC, ACGGGTTG is lower in “PBM E-score” value: -0.0257 for the first, -0.0501 for the second.

Going from GGTAAGCA to ATGGGCGC, the “PBM E-score” value falls from -0.0989 to -0.158.

First: CCGAAGTC
Second: CTACGCCA
The “PBM E-score” value of the first is higher: 0.417 for the first, -0.271 for the second.

Compared with GCACACCC, ACTACGCT is lower in “PBM E-score” value: -0.0719 for the first, -0.144 for the second.

Going from TCAGGGCA to TGCATCCA, the “PBM E-score” value rises from -0.18 to -0.156.

Going from AGTAGGAC to ACGTTAAG, the “PBM E-score” value falls from -0.0988 to -0.136.

Going from ACTGATAG to TGCCACCA, the “PBM E-score” value falls from -0.247 to -0.374.

Compared with CGGATACC, ACCTAAGC is lower in “PBM E-score” value: 0.41 for the first, 0.0479 for the second.

Compared with CGTTCTCC, AGATCAGA is lower in “PBM E-score” value: -0.0997 for the first, -0.379 for the second.

Compared with GGTGCTCA, AATCTAGA is lower in “PBM E-score” value: 0.0304 for the first, -0.126 for the second.

Going from CGGACCGC to AGAAGCAC, the “PBM E-score” value falls from 0.29 to 0.0152.

First: ATCTAACG
Second: TCTGGGCA
The “PBM E-score” value of the first is lower: -0.0812 for the first, 0.172 for the second.

Compared with ACAAACAG, AGCCGACT is higher in “PBM E-score” value: -0.22 for the first, 0.261 for the second.

Compared with CGCGCCGA, CCCGGCCA is lower in “PBM E-score” value: 0.281 for the first, 0.217 for the second.

Compared with GATAAGAA, TGAAGACA is lower in “PBM E-score” value: 0.052 for the first, 0.00962 for the second.

First: AGCCGTAC
Second: CGAGCATC
The “PBM E-score” value of the first is lower: 0.127 for the first, 0.174 for the second.

First: AGAACGAA
Second: ACGTCCAC
The “PBM E-score” value of the first is lower: -0.238 for the first, -0.209 for the second.

Compared with AGCAGTCG, AAAGGTAT is lower in “PBM E-score” value: 0.0808 for the first, 0.0369 for the second.

First: ACCGAAAT
Second: AGCCACCC
The “PBM E-score” value of the first is higher: 0.316 for the first, 0.0842 for the second.

Going from AGCATAAA to GAACCAAA, the “PBM E-score” value falls from 0.0111 to -0.115.

Going from CAACTAAG to GCTGCGCC, the “PBM E-score” value rises from -0.196 to -0.112.

Compared with CAAGTCTC, CAGCTGCA is lower in “PBM E-score” value: -0.0352 for the first, -0.06 for the second.

Compared with TTACGTAA, AGCCCTTC is higher in “PBM E-score” value: -0.339 for the first, -0.15 for the second.

Going from TAAAGTGA to ACTCCAAG, the “PBM E-score” value falls from 0.00975 to -0.275.

Compared with ACGGTAAA, GCCCTAGC is lower in “PBM E-score” value: 0.172 for the first, -0.122 for the second.

Going from CATATTTA to GCGGTCAA, the “PBM E-score” value rises from -0.121 to 0.0902.

Going from CCGCGGTC to AAGATAAT, the “PBM E-score” value falls from 0.108 to -0.0242.

First: GTCTAGCA
Second: TTTGCAAA
The “PBM E-score” value of the first is higher: -0.104 for the first, -0.196 for the second.

First: TCACGTCA
Second: GAAGTGCA
The “PBM E-score” value of the first is higher: -0.0663 for the first, -0.21 for the second.

Compared with AGTGGGGC, ACCTGCAG is lower in “PBM E-score” value: -0.109 for the first, -0.416 for the second.

Going from AACTGTCA to AGTTGCGA, the “PBM E-score” value falls from -0.193 to -0.282.

Going from AGCTAGTC to CATCTCGC, the “PBM E-score” value rises from -0.17 to -0.0526.

First: CCCTCGAG
Second: CCTATGAG
The “PBM E-score” value of the first is lower: -0.254 for the first, -0.227 for the second.

Going from AAGACGTC to AAAAACGC, the “PBM E-score” value rises from -0.173 to 0.143.

Going from AGATGACG to AGAGCGAC, the “PBM E-score” value rises from -0.348 to -0.173.

Going from GAGTTGCC to ACCCTTGA, the “PBM E-score” value falls from 0.197 to -0.00133.

Compared with ACAGTGTA, ACAATGCG is lower in “PBM E-score” value: -0.0881 for the first, -0.115 for the second.

First: ATATGTCC
Second: ACCCCCAT
The “PBM E-score” value of the first is higher: 0.145 for the first, -0.28 for the second.

Going from CGTGGGAG to CCGAACCC, the “PBM E-score” value rises from -0.113 to 0.37.

Going from CTTCCTAA to CCGCACTA, the “PBM E-score” value rises from -0.157 to 0.187.

First: TAATCCAA
Second: CCCGAGTA
The “PBM E-score” value of the first is lower: -0.0845 for the first, 0.383 for the second.

Going from CCCCAAAC to ACTCGAAG, the “PBM E-score” value rises from -0.258 to -0.167.

Compared with CCCTCTCA, GCCACGAA is higher in “PBM E-score” value: -0.334 for the first, -0.187 for the second.

First: ATACTTTC
Second: ACTCTGTC
The “PBM E-score” value of the first is higher: 0.133 for the first, -0.258 for the second.

Going from CTTGATAA to GTCAGCAC, the “PBM E-score” value rises from -0.152 to -0.0387.

Compared with CGCTCGCA, AAAACAGA is lower in “PBM E-score” value: 0.104 for the first, -0.0197 for the second.

Going from CTGACGGC to AATTACGC, the “PBM E-score” value falls from 0.128 to -0.24.

Going from AGGCAAAA to ATCACAGA, the “PBM E-score” value falls from -0.0302 to -0.155.

First: AGCCAGAT
Second: GGAACTAA
The “PBM E-score” value of the first is lower: 0.0138 for the first, 0.308 for the second.

Compared with ACCGAGAG, AACGGACC is lower in “PBM E-score” value: 0.342 for the first, 0.129 for the second.

Going from GCCGCTTA to CCGAAGAG, the “PBM E-score” value rises from 0.206 to 0.417.

Compared with GGGCGTGA, TATACAAA is lower in “PBM E-score” value: 0.0344 for the first, -0.0128 for the second.

Compared with GTCGACAA, ACAAGTTC is higher in “PBM E-score” value: -0.0559 for the first, -0.0154 for the second.

First: CCAATGAG
Second: AGCTGTCG
The “PBM E-score” value of the first is lower: -0.134 for the first, -0.0511 for the second.

Going from AGCGTTAA to ACGTGTTA, the “PBM E-score” value rises from -0.162 to -0.126.

Compared with AGATAGCA, AGAAGGAA is higher in “PBM E-score” value: -0.0652 for the first, 0.0573 for the second.

Going from ATTGTTCA to GACTTTAC, the “PBM E-score” value rises from -0.143 to 0.144.

First: CTAGGCGA
Second: ACGGGAAC
The “PBM E-score” value of the first is lower: -0.104 for the first, 0.279 for the second.

First: CGATAGTA
Second: CTGTTTGC
The “PBM E-score” value of the first is higher: 0.0339 for the first, -0.141 for the second.

Going from CTACATGA to CGATTGAA, the “PBM E-score” value rises from -0.223 to 0.045.

First: TAGCGCGA
Second: AGGCCACG
The “PBM E-score” value of the first is lower: -0.00656 for the first, 0.0562 for the second.

First: AATCACTC
Second: CATTCTAA
The “PBM E-score” value of the first is lower: -0.218 for the first, -0.0564 for the second.

Going from ATCAGAGA to ACGCACCA, the “PBM E-score” value rises from -0.258 to -0.191.

Compared with TACTATCA, CATATACC is higher in “PBM E-score” value: -0.0463 for the first, 0.131 for the second.
